# Among all 310,000 compounds or so, about 2,200 (0.71%) showed an effect of 50% or more. The effect is printed as a negative number. Some of the results follow.
# Molecular target: human ether-à-go-go-related gene (hERG) potassium channel (human, UniProt Q12809)
# Test: primary screen, population patch clamp on CHO cells stably expressing hERG
# Chain of human ether-à-go-go-related gene (hERG) potassium channel (Q12809 whole entry, looked up): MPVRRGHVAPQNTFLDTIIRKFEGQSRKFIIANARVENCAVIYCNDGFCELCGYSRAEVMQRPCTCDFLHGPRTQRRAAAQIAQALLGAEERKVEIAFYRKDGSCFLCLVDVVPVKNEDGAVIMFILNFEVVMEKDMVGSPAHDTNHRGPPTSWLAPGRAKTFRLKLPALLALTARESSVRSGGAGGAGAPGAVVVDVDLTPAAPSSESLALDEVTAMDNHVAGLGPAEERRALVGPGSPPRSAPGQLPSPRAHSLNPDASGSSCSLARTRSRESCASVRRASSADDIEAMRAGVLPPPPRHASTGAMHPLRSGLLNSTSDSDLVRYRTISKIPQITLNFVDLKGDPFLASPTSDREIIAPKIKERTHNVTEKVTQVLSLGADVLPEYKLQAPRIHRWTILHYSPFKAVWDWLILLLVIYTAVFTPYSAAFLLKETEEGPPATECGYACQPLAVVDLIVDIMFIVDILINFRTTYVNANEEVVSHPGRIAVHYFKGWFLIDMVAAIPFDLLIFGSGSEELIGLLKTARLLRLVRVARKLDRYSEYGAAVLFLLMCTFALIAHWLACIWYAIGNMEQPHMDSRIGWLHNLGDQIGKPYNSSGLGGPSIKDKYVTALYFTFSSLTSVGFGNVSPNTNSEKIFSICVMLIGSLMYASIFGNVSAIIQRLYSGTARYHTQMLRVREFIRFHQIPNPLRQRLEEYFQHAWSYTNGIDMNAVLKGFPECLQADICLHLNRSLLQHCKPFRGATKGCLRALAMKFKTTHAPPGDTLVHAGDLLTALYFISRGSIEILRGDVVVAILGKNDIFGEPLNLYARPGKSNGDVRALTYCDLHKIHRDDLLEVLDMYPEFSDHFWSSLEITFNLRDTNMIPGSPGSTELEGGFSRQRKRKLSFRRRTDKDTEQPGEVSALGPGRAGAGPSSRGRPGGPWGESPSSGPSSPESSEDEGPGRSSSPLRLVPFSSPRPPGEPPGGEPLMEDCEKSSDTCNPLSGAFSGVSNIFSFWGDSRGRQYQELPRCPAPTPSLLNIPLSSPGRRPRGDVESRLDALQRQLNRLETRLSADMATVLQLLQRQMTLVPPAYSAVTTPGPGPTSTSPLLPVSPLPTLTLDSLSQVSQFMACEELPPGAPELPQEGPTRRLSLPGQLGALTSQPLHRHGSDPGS
row,SMILES,"hERG current change (%, negative = inhibition) at 1uM [%]"
1,Cn1c(-c2ccc(F)cc2)cnc1SCC(=O)N1CCCCC1,14.6
2,CNc1c(N)c(=O)oc2ccccc12,11.5
3,Cc1cnn(C(=O)c2oc3ccccc3c2C)c1,-5.76
4,COc1ccc(C2N=C(c3ccccc3)C(C)(C)N2O)cc1OC (stereo not shown),12.4
5,Nc1nc(N)c(N=Nc2ccc(SCC(=O)O)cc2)c(=O)[nH]1,11
6,Cc1cc(OCCN2CCOCC2)ccc1C(C)C.Cl,11.9
7,CC1=NN(c2ccccc2)C(=O)/C1=C/c1cn(C)c2ccccc12,10.8
8,CC(=O)c1c(C)[nH]c(C(=O)NNC(=O)COc2ccc(Cl)cc2C)c1C,-11.1
9,CCCC(=O)N(c1ccc(OC)cc1)C1C=CS(=O)(=O)C1 (stereo not shown),0.819
10,Cc1[nH]n(-c2ccccc2)c(=O)c1/C=N/NC(=O)c1ccc(O)cc1O,13.6
11,CCOC(=O)C1=C(CNCc2ccc(C)cc2)NC(=O)NC1c1cc(C)ccc1C (stereo not shown),-15.9
12,CCOC(=O)c1c(NC(=O)c2cccnc2Cl)sc(C(=O)N(C)C)c1C,6.32
13,CCN(Cc1ccccc1)S(=O)(=O)c1ccc(C(=O)Nc2nnc(C)o2)cc1,-1.99
14,CCC(=O)N1N=C(c2ccc(NS(C)(=O)=O)cc2)CC1c1ccc(N(C)C)cc1 (stereo not shown),-4.14
15,Cc1cccc(-n2c3nc(=O)[nH]c(=O)c-3cc3c(C)nn(-c4ccccc4)c32)c1C,13.8
16,O[C@H]1C2CCC1C(N1CCCCC1)CC2 (stereo partly shown),8.63
17,O=C(CCCOc1ccccc1)N1CCN(c2ccccc2)CC1,-4.93
18,Cc1nc(NNC(=O)c2ccccc2)cc(-c2ccccc2)n1,9.3
19,Oc1c(Br)cc(Br)cc1CNc1cccc2cccnc12,12.7
20,CCCn1nnnc1SCC(=O)NCc1ccc(OC)cc1,7.59

row,SMILES,"hERG current change (%, negative = inhibition) at 1uM [%]"
1,COc1ccc(-c2noc(CCC(=O)Nc3cc(OC)ccc3OC)n2)cc1,1.82
2,COc1ccc(/C=N/n2c(C)nnc2C)c(OC)c1,-2.39
3,CCCCNC(=O)OCCNC(=O)Oc1cccc(C)c1,7.33
4,Cc1cc(-c2ccccc2C(=O)Nc2ccccc2O)on1,12.1
5,CC1(C(=O)Nc2ccccc2)Cc2ccccc2C(=O)O1 (stereo not shown),9.44
6,CCCCCCn1c(CN2CCCCC2)nc2c1c(=O)n(C)c(=O)n2C,-0.165
7,COCCNC(=O)/C(C#N)=C/c1c(N2CCN(C)CC2)nc2ccccn2c1=O,12.8
8,Cc1nn(C)c(Oc2ccccc2)c1CCNC(=O)CCl,23.5
9,S=c1c2c(nc3nc[nH]n13)CCC2,9.35
10,Oc1ccccc1CN1CCCN(Cc2ccccc2O)C1,11.4
11,CCc1ccccc1NC(=O)/C(=C/c1ccccc1)c1ccccc1,-4.2
12,CC(=O)NCCn1c(SCc2cc(F)ccc2F)nc2ccccc2c1=O,-2.83
13,c1ccn(-c2ccc(N3CCOCC3)cc2)c1,1.48
14,CCc1ccc(S(=O)(=O)Nc2c(C)n(C)n(-c3ccccc3)c2=O)cc1,1.6
15,COc1ccc(C(NC(=O)c2cccnc2)c2cc(Cl)c3cccnc3c2O)cc1OC (stereo not shown),6.51
16,CCOc1ccc(S(=O)(=O)NCCC(=O)NCCOc2ccccc2)cc1,3.45
17,C/C=C\C=C\C(=O)N1CC2(CC(c3cccc(NC(=O)CC)c3)=NO2)C[C@H]1C(N)=O (stereo partly shown),10.1
18,CCC(=O)Nc1cc(C(F)(F)F)ccc1N1CCCC1,8.59
19,CCOc1ccc(C(=O)Nc2ccc(NC(=O)c3ccccc3)c(C)c2)cc1[N+](=O)[O-],14.1
20,CCN(CC)CC(=O)Nc1ccc(-c2ccc(NC(=O)CN(CC)CC)c(OC)c2)cc1OC,11.6

row,SMILES,"hERG current change (%, negative = inhibition) at 1uM [%]"
1,Cl.OC(COCc1ccc(Cl)cc1)CN1CCN(c2ccccn2)CC1 (stereo not shown),-24.9
2,COc1ccccc1NC(=O)NC1(C(=O)N2CCCCCC2)CCCCC1,15.4
3,O=C(CSc1ccccc1Cl)NC1CCCc2ccccc21 (stereo not shown),4.23
4,O=C(CSc1nc(Nc2ccccc2)nc(N2CCOCC2)n1)Nc1ccc(Br)cc1F,13.4
5,CCC1CCCCN1C(=O)CCS(=O)(=O)c1ccc2c(c1)CCN2C(C)=O (stereo not shown),15.2
6,O=[N+]([O-])c1ccc(-c2cn3ccccc3n2)cc1,9.49
7,C=C1CCN([C@H](C(=O)NCc2ccc(Cl)c(Cl)c2)C(C)C)S(=O)(=O)c2ccccc21,8.39
8,CCOC(=O)c1nn(-c2ccc(C)cc2)c2nc(Nc3ccccc3)cc(=O)n12,25.2
9,Cc1ccc(C(=O)N/C(=C/c2ccco2)C(=O)NCCc2c[nH]c3ccccc23)cc1C,7.17
10,Cc1cc(COc2ccccc2)oc1C(=O)O,14.4
11,CS(=O)(=O)N(CCc1ccccc1)CC(=O)NCc1ccc2c(c1)OCO2,-6.84
12,CC(C)(C)c1ccc(C(=O)NCc2nnc(SCC(=O)NCC3CCCO3)o2)cc1 (stereo not shown),12.8
13,O=C(N/N=C/c1ccccc1Cl)c1cccc(F)c1,1.86
14,COc1ccc(-c2nc(N)nc(C)c2Oc2ccccc2Br)c(O)c1,-0.597
15,N/C(=N\OC(=O)c1ccc2ccccc2c1)c1cccc([N+](=O)[O-])c1,7.52
16,C=CCSC(=S)Nc1c(C)n(C)n(-c2ccccc2)c1=O,24.5
17,CC(=O)Nc1ccc(S(=O)(=O)NC2CC(=O)N(c3ccc(C)c(C)c3)C2)cc1 (stereo not shown),21.6
18,Cc1c(C)c2ccc(OC(C)C(=O)N3CC[C@@]4(O)CCCC[C@H]4C3)c(C)c2oc1=O (stereo partly shown),17.7
